B1: LINE1-mini (parent)
chain: GGCAGAGCUCAACACAGCGUGGCAAAGUGGCUGUGGCUAGACUGCC

Read counts are not given, so values of variants with three or more changes are uncertain.

This data set covers variants of B1. Kind of data set: self-cleavage, relative activity (ratio to wild type); higher = more cleavage; in vitro, sequencing; the parent is a self-cleaving ribozyme.
Turning to A4G A16G A26U C45G C46G, the self-cleavage is 0.15. The value for A4G A11G A24U C42A was 0.01. As to A4G A12U C15G A25G, the self-cleavage stood at 0.01. For A4G C15A A16C G33A C45A, the self-cleavage stood at 0.02. The value for A4G C18G G36A G44A was 0.05. On to A4G C8A A25G G27A C37G U38C A41G, for which the self-cleavage turned out to be 0.03.

Turning to A4G C8U C31A G33C C37A A41C C45G, the self-cleavage amounted to 0.03. The value for A4G C18A U28A was 0.72.

On to A4G G7A U38G A39G C42A, for which the self-cleavage worked out at 0.02. The value for A4G A14G C37U G44A was 0.11. Then A4G G33A C37A C42U C46U, with 0.02; and A4G A14U C18A, with 0.02; and A4G C8A G30A, with 1.36. For the variant A4G G22C G30C C31G, the self-cleavage was found to be 0.07. For A4G G7C U9A A14C G29A G36C U38A, the self-cleavage was 0.22. Regarding A4G A14C G27A G30U C45A, the self-cleavage stood at 0.09. On to A4G G7A C10U A25C G33A U34G, for which the self-cleavage is 0.05.

As for A4G G7C C15U, the self-cleavage was determined as 0.07. The value for A4G C18U A24U A41G was 0.08; that for A4G C15U G27A G29C was 0.45; that for A4G G7A A12C C15A U28G C45A was 0.01.

Regarding A4G G7A G36C G40U C45U, the self-cleavage turned out to be 0.06. In the case of A4G G5A C18G, the self-cleavage is 0.03.

As for A4G G5C U20G, the self-cleavage was determined as 0.08. Regarding A4G A6G G27A G30U G36A G44U, the self-cleavage came out at 0.04. For the variant A4G C13U G17U C37G, the self-cleavage is 0.11. The value for A4G A14G A16G U20C C42A was 0.33; that for A4G G19C A39U was 0.05. Regarding A4G G5A C45G, the self-cleavage amounted to 0.07. Then A4G G5U G33C U38A, with 0.02; and A4G C15A C45G, with 0.08; and A4G C23A G30A, with 1.68. Regarding A4G C23U A24U A26G G27A, the self-cleavage stood at 0.11.

Regarding A4G C10A A41U, the self-cleavage is 0.01. The value for A4G G30A U43C was 1.79; that for A4G A14C G33A was 0.21; that for A4G G29U A39G was 0.09. Then A4G G5C C15U U32C G33A, with 0.04.

On to A4G G7C C8U A25G G40A C46A, for which the self-cleavage turned out to be 0.14. Consider A4G A11C G35U, for which the self-cleavage is 0.06.

In the case of A4G C8U C15G G29U, the self-cleavage was 0.28.

Take A4G G5U A11U A24U C37G C46A: the self-cleavage is 0.03.

On to A4G C8G G40C C46U, for which the self-cleavage came to 0.02. With A4G A12C U32G, the self-cleavage came out at 0.01.

As for A4G C13G G33U C42U C46G, the self-cleavage was 0.09.

On to A4G G22U C31A C42U, for which the self-cleavage stood at 0.36.

Take A4G G21C C23A A24G C42U: the self-cleavage came to 0.07. Regarding A4G A12G G27U, the self-cleavage was determined as 0.01. The value for A4G A14C C23A was 0.33; that for A4G A14C G17U was 0.26; that for A4G G5U C13G U43C was 0.02. As to A4G C10G G19C A25U G35U U38C, the self-cleavage was determined as 0. For A4G A26U A41U U43G, the self-cleavage came out at 0.12. For A4G A12C G33A U38C, the self-cleavage was 0.02. A4G A25U C31A: the self-cleavage is 0.09.

Regarding A4G G19U U20A G22C A25U, the self-cleavage came to 0.35. In the case of A4G C13A A14G, the self-cleavage is 0.05. Consider A4G A11U G22A G29A C46A, for which the self-cleavage stood at 0.01.

In the case of A4G C23A C31U C42A C45U, the self-cleavage was found to be 0.12. Then A4G A12U U32A G36C U38C, with 0.14; and A4G G29U G30C G33A, with 0.02. Then A4G G7A A11G A39U, with 0.03.

For A4G G19C A24C, the self-cleavage was 0.02.

On to A4G C10U A11C U38A, for which the self-cleavage is 0.01. For A4G G30U A39C, the self-cleavage is 0.05. Then A4G G5U G19C A25U G40C, with 0.02; and A4G C10A C13G U43A C46G, with 0.01; and A4G C10G A12C C31U C45A, with 0.01. The value for A4G G7A U20C C42U was 0.08; that for A4G C13A G17U C46A was 0.43; that for A4G A16U G44A was 0.04. Then A4G A14C A25U C31G, with 0.06; and A4G A24G G40A, with 0.21.

For A4G C10A A11C A26C C31A, the self-cleavage came to 0.02. As for A4G C8U C15G, the self-cleavage amounted to 0.3. Regarding A4G G7U G27C, the self-cleavage turned out to be 0.08.

In the case of A4G A12U C23A G29C C45A, the self-cleavage is 0.03.

With A4G A16C G22C U43C G44A, the self-cleavage amounted to 0.03.

As for A4G A24C G29U G33C, the self-cleavage came out at 0.05. For A4G G5U G17U G36A, the self-cleavage worked out at 0.05.

On to A4G C10U U38A G44A, for which the self-cleavage came out at 0.03. Then A4G A12G U20A A24C G30U G35U, with 0.05; and A4G G7C G21U C23A, with 0.05. For A4G A14G G19U G21U G35U U38G, the self-cleavage was determined as 0.01. For A4G C10U C13A A14C U28G G40U, the self-cleavage came out at 0.03. The value for A4G A6U U34C C37U A39G was 0.15; that for A4G A11U A25U G27A G40U was 0.02; that for A4G A6U G22C A24U was 0.15. Regarding A4G A11G A12U A16C G17A U32A A41C, the self-cleavage was determined as 0.01. As to A4G G27C C31U, the self-cleavage is 0.13. As to A4G A6U A14U, the self-cleavage turned out to be 0.22.

With A4G C8A U32A U38G C42U, the self-cleavage was 0.12. As to A4G G29A C45G, the self-cleavage is 0.38. Then A4G A12G G21A U32G U38G, with 0.08.

Take A4G G19U U28C G30U G33A C42G: the self-cleavage worked out at 0.01. The value for A4G C18A G30U U34G C37A U38A G44C was 0.01; that for A4G A12C C23A was 0.01. The value for A4G G5U C10G G17U A25C A26U C45G was 0.01; that for A4G G7A U9G G17U G27C U28C C31A was 0.06; that for A4G G5U G35C G40U was 0.06. With A4G G5A C10A C18A A25C, the self-cleavage was 0.03. A4G C8A A26C U32A: the self-cleavage is 0.1. The value for A4G C18G A25C was 0.04; that for A4G G21C G27U U28C G30U U32A was 0.05; that for A4G C15G A16U A25C was 0.25. Then A4G G19A G29C, with 0.47. A4G A11U G36A: the self-cleavage is 0.04. The value for A4G G5A G19A G33C G35A was 0.03; that for A4G C13A G21C C23U was 0.09; that for A4G C10A A25G was 0.01. As to A4G C10G A11G, the self-cleavage is 0.03. Take A4G A25U G33A G36U: the self-cleavage was found to be 0.08.

Turning to A4G A14U C23U G36C C37U, the self-cleavage is 0.05. Then A4G G17U C23A G29A A39U, with 0.1. Then A4G A12U U28G G35A, with 0.28.

Regarding A4G G5C C10U A12C A14U G30C G35C, the self-cleavage came to 0.01.

Take A4G G5A C46A: the self-cleavage came out at 0.08. Then A4G A26U G27A G35A, with 0.07. A4G C18G G22U C23A: the self-cleavage was 0.34. A4G A12U C42G: the self-cleavage worked out at 0.01.

Take A4G C23G A25U G27U A39G: the self-cleavage turned out to be 0.15. Then A4G G7U C31A, with 0.25; and A4G A6U C13A G44A, with 0.33. Then A4G A14G U20A, with 0.49. The value for A4G G17U G30A A39G C42A was 0.03; that for A4G C23G A25G was 0.12; that for A4G A14G G21C C23G A24G was 0.22.

A4G A11G C46U: the self-cleavage was 0.02.

As for A4G C8G C31U G35A C46U, the self-cleavage turned out to be 0.01.

In the case of A4G C37A A41G C45U, the self-cleavage is 0.04. Turning to A4G A25G G30U, the self-cleavage was 1.3. The value for A4G A26C G29A U38C C46A was 0.08. Then A4G C15U G22U A24C, with 0.08; and A4G A12G G19C G27U G29A G30U, with 0.03. Then A4G G5A C10G, with 0.02; and A4G G5U U20G A39U C45U, with 0; and A4G C13U G19U, with 0.35. For A4G C13U G19C, the self-cleavage stood at 0.16. The value for A4G G17A U28A U32G was 0; that for A4G C8G C45A was 0.03. The value for A4G G7C C10G G19C was 0.02; that for A4G A16C G19A C31U was 0.12. Then A4G A24U U34C, with 0.12. Consider A4G A14G G29U A41G, for which the self-cleavage came out at 0.06. The value for A4G C15A G35U was 0.07; that for A4G G5U A6G A14U was 0.1.

In the case of A4G A14G U28G, the self-cleavage came to 0.08. The value for A4G G17A U32G was 0.04. The value for A4G A11U G22C G29A G40A G44U was 0.01.

In the case of A4G C8G C18A G22A C45A, the self-cleavage was 0.02.

As to A4G G5A A11G A41U, the self-cleavage came out at 0.01. In the case of A4G C10U G30U U32G U43G, the self-cleavage came out at 0.03. Then A4G G27U G30A A41C, with 0.03; and A4G C15G A16U C45G, with 0.01; and A4G C13U U20A C23A, with 0.08. As to A4G A6U A25U G35A, the self-cleavage worked out at 0.2. As to A4G C10A U32A, the self-cleavage was determined as 0.01.

Take A4G G30C C45U: the self-cleavage worked out at 0.6.

Take A4G A12G C23A: the self-cleavage was 0.04. With A4G A24C C31A A39G, the self-cleavage amounted to 0.05.

A4G G17U G19A: the self-cleavage was 0.27. As for A4G A11C C23A G27C C46A, the self-cleavage was 0. The value for A4G G5U C8U A14U C23A was 0.06; that for A4G C31A G35A was 0.04. Regarding A4G G19A U32G U38C A41G, the self-cleavage was 0. Then A4G A25G G30A U38G, with 0.04; and A4G C13U A39G C45A, with 0.08.

(Values after the RNAGym collection of RNA variant scans (doi:10.7554/elife.90254).)
